In all, about 310,000 compounds went through this assay and about 2,200 (0.71%) showed an effect of 50% or more. The effect is printed as a negative number. The list shows a part of the results.
What follows are compounds tested against human ether-à-go-go-related gene (hERG) potassium channel (human, UniProt Q12809) (assay: primary screen, population patch clamp on CHO cells stably expressing hERG).
Sequence of human ether-à-go-go-related gene (hERG) potassium channel (Q12809 whole entry, looked up): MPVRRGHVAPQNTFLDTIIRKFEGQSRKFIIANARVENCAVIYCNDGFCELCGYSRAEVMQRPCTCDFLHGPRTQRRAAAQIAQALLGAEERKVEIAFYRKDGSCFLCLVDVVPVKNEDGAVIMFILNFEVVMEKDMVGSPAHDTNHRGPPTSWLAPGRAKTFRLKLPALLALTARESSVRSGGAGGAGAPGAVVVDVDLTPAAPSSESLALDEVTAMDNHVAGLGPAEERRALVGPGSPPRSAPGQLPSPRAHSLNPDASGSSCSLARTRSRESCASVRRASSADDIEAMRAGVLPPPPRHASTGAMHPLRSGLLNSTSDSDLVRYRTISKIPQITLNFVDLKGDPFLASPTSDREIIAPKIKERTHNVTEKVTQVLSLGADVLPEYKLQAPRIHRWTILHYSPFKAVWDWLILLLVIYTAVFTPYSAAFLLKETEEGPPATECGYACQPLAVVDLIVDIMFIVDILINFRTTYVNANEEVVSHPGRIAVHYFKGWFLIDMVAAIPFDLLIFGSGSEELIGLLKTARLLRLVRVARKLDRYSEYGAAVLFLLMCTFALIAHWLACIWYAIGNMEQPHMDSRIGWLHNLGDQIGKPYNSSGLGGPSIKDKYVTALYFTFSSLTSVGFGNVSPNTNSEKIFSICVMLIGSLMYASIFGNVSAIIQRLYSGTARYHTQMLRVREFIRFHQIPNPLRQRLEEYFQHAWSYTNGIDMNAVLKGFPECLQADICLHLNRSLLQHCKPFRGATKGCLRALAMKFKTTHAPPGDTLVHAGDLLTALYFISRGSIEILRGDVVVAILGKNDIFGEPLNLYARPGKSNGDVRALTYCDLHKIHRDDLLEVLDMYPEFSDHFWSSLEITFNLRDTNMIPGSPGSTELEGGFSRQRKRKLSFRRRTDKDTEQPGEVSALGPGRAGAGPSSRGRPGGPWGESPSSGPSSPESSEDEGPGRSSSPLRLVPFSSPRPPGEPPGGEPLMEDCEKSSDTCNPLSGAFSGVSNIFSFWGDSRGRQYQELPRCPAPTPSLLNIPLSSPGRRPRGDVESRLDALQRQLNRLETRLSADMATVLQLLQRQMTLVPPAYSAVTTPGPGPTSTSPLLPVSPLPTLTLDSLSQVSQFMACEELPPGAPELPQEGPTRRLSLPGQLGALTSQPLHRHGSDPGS

| SMILES | hERG current change (%, negative = inhibition) at 1uM |
| --- | --- |
| NNc1nc(-c2ccccc2)cc(-c2ccc(Br)cc2)n1 | 9.29% |
| CCCc1nnc2c(N(C)S(=O)(=O)c3ccc(C)cc3)nc3ccccc3n12 | 4.28% |
| FC(F)(F)c1ccc(Cl)c(N/N=C/c2ccc(N3CCOCC3)s2)c1 | 12.5% |
| Clc1ccccc1OCc1nc(-c2ccc(Br)o2)no1 | 13.3% |
| C[C@@]12CCC=C[C@H]1[C@H](c1ccoc1)N(Cc1ccccc1)C2=O | 1.22% |
| COCCN1C(=O)C(O)=C(C(=O)c2cccs2)C1c1ccccc1 (stereo not shown) | 11.1% |
| CCCC1CCc2c(sc(NC(=O)OCC)c2C#N)C1 (stereo not shown) | 1.41% |
| CC1CCCCN1c1nnc(NC(=O)Cn2c(=O)oc3ccccc32)s1 (stereo not shown) | 15.3% |
| CCc1ccc(OCC(=O)NNC(=O)c2ccc(NC(=O)C3CC3)cc2)cc1 | 11.9% |
| O=C(COc1ccc(F)cc1Cl)N(Cc1nnc(-c2ccccc2Cl)o1)C1CC1 | 0.721% |
| CCNc1nc(NCC)nc(Oc2ccc(OCC)nn2)n1 | 18.1% |
| N#C/C(=C\c1ccc(O)cc1)C(=O)N1CCCC1 | 6.83% |
| Cc1cc2c(s1)Nc1ccccc1N=C2N1CCN(C)CC1 | -7.44% |
| Cc1ccc(CSc2ncnc3c2cnn3-c2ccc(C)cc2)cc1 | 19.3% |
| Cn1c(=O)c(=O)n(C)c2cc(S(=O)(=O)NCc3ccc(Cl)cc3)ccc21 | 1.52% |
| O=C(CCc1ccccc1)N1CCN(S(=O)(=O)c2cccs2)CC1 | -4.2% |
| Cc1ccc(SCc2cc(=O)[nH]c(N3CCN(Cc4ccc5c(c4)OCO5)CC3)n2)cc1 | 5.53% |
| O=c1c2c3n(c(=S)nc2[nH]n1-c1ccccc1)CCCCC3 | 8.28% |
| COc1ccc(-c2nc(C)c(C(C)=O)n2O)cc1 | 18.5% |
| COc1cccc(C2=NOC(C(=O)Nc3cccnc3)C2)c1 (stereo not shown) | 11.8% |

| SMILES | hERG current change (%, negative = inhibition) at 1uM |
| --- | --- |
| COc1cc(-c2noc(CCCC(=O)NCc3ccco3)n2)cc(OC)c1OC | 6.36% |
| CC(=O)Nc1ccc(S(=O)(=O)NCC(=O)OC(C)c2ccccc2Cl)cc1 (stereo not shown) | 3.21% |
| O=C(CCc1nc2ccccc2c(=O)[nH]1)OCC(=O)N1CCc2ccccc21 | 9.67% |
| Cc1ccc(C)c(NC(=O)CN(C)C(=O)c2cccc(S(=O)(=O)N3CCN(Cc4ccccc4)CC3)c2)c1 | 3.09% |
| CC(C)C(NC(=O)c1ccccc1)C(=O)NCC(c1ccccc1)N(C)C (stereo not shown) | 9.28% |
| COc1ccc(NC(=O)Nc2nnc(Cc3ccccc3)s2)cc1 | 6.42% |
| O=C1CC(C(=O)O)C2(CCCC2)O1 (stereo not shown) | 5.63% |
| O=C(CN(Cc1ccc(F)cc1)C(=O)CCC(=O)Nc1nccs1)NCC1CCCO1 (stereo not shown) | 16.7% |
| O=C(Oc1ccc2c(c1)OCO2)c1cccs1 | 7.85% |
| O=C(c1cc(COc2ccc(F)cc2Cl)on1)N1C[C@H]2CC[C@H]1C2 | 6.77% |
| O=C(CCC(=O)Nc1cccc([N+](=O)[O-])c1)NCc1ccccc1 | 10.2% |
| CCn1cc(/C=C/C(=O)Nc2ccn(Cc3c(F)c(F)c(F)c(F)c3F)n2)cn1 | 4.65% |
| COc1cccc(NC(=O)COC(=O)c2ccccc2C(=O)N(C)c2ccccc2)c1 | 3.72% |
| CCCCN(CC(=O)Nc1c(C)cccc1CC)C(=O)SCC | 13.2% |
| COc1cc(CC(=O)N(C)CC(=O)Nc2cc(C)ccc2C)cc(OC)c1OC | 13.4% |
| Cc1nnc(NC(=O)COc2ccccc2)s1 | 10.4% |
| O=C(Nn1cnnc1)C(c1ccccc1)c1ccccc1 | 4.39% |
| C/C(=N\NC(=O)C(=O)Nc1cccc(Cl)c1)c1ccncc1 | 0.238% |
| O=C1NC(=Nc2ccccc2)S/C1=C\c1cccnc1 | 5.01% |
| Cc1nc2cc(Nc3nnc(-c4ccccc4)c4ccccc34)ccc2n1C | -17.8% |

| SMILES | hERG current change (%, negative = inhibition) at 1uM |
| --- | --- |
| CCN(CC)S(=O)(=O)c1cc(NC(=O)CNc2cccc(S(=O)(=O)N3CCOCC3)c2)ccc1C | 18.1% |
| CCOC(=O)c1sc(NC(=O)c2ccc(Br)o2)cc1C | -1.48% |
| CCc1ccc(NC(=O)C(=O)NNC(=O)c2ccc(OC)cc2)cc1 | 7.36% |
| S=C(NCc1cccnc1)Nc1ccc(Cl)cc1 | 6.5% |
| Cc1onc(C(=O)NC2CCCCC2)c1[N+](=O)[O-] | 4.12% |
| CCOc1ccc(NC(=O)CN2CCc3cc4c(cc3C2)OCCCO4)cc1OCC | -9.58% |
| COc1ccccc1N=Nc1c(C)[nH][nH]c1=O | -7.06% |
| O=C(COc1ccc(Br)cc1F)NC1CCN(Cc2ccccc2)CC1 | -64.8% |
| Cn1cc(SCC(=O)NC2CCCC2)c2ccccc21 | 3.46% |
| CCSc1ccccc1C(=O)N1CCN(c2ccc([N+](=O)[O-])cc2)CC1 | -41% |
| O=C(c1ccccc1-n1cccn1)N1CCc2c([nH]c3ccccc23)C1c1ccccn1 (stereo not shown) | 10.2% |
| CCCCNC(=O)Cc1c(OC)ccc2cc(Br)ccc12 | 19.6% |
| Cc1ccc(-c2nn3c(C)nnc3s2)cc1NCc1c(F)cccc1Cl | 10.8% |
| O=C(c1cccs1)n1nc(-c2ccc(Cl)cc2)nc1NCc1ccco1 | 2.26% |
| O=c1[nH]c2ccccc2nc1/C=C/c1ccc(Cl)cc1 | 14.3% |
| Cc1ccc(-c2c(C(=O)Nc3ccccc3C)c(C)[nH]c(=S)c2C#N)o1 | 10.2% |
| COC(=O)CCC(=O)Nc1cc(OC)c(OC)cc1Cc1nccc2cc(OC)c(OC)cc12 | 15.2% |
| O=C(Cn1cnc2ccccc2c1=O)c1cccs1 | 8.31% |

Reference: article PMC4336329 (PLoS ONE, 2015)
